Target: rabbit skeletal muscle actin (monomeric, Mg-εATP-actin) (rabbit, UniProt P68135)
Assay: actin nucleotide exchange kinetics

B1: human cofilin (natural protein)
chain: not shown
modifications: paralogue not given; cofilin-1 (CFL1, non-muscle) taken as the likeliest
  Kd: 1.7 ± 0.3 µM

— article PMC2957522 (Journal of molecular biology, 2010)
